The supplement of paper PMC9446081
Hit rate of the full screen: of about 39,000 compounds, about 220 (0.56%) showed activity. This is one part of the list.

Tested on: Escherichia coli K-12 BW25113
Experiment: relative growth (OD600 normalised to plate interquartile mean) (fraction); higher = less growth inhibition, active = 0.2 or less
Conditions: 50 µM; LB; incubation time: overnight (16-24 h)
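Note: static incubation at 37 °C against the wild-type strain, values averaged over two biological replicates.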

Structure (SMILES) | relative growth
COC(=O)[C@H]1CCNCCC1=O | inactive: 0.992
O=C(C[C@@H]1CC[C@H](NC(=O)CN2CCOCC2)[C@@H](CO)O1)NC1CCC1 | inactive: 1.02
Cc1c(-c2c(-c3ccc(F)o3)sc3ncnc(O[C@H](Cc4ccccc4OCc4ccnn4CC(F)(F)F)C(=O)O)c23)ccc(OCCN2CCN(C)CC2)c1Cl | inactive: 0.953
COc1ccccc1CNC(=O)C[C@H]1C[C@H]2c3cc(NC(=O)Cc4ccncc4)ccc3O[C@H]2[C@H](CO)O1 | inactive: 0.998
C[C@@H]1CCCCO[C@@H](CN(C)C(=O)Nc2ccc3c(c2)OCO3)[C@H](C)CN([C@H](C)CO)C(=O)c2cc(NC(=O)Nc3ccc(C(F)(F)F)cc3)ccc2O1 | inactive: 1.05
CO[C@H]1CN(C)C(=O)c2cc(NS(=O)(=O)c3ccccc3)ccc2OC[C@H](C)N(C(=O)NC(C)C)C[C@H]1C | inactive: 0.989
C[C@H](CO)N1C[C@H](C)[C@@H](CN(C)Cc2ccc(C(=O)Nc3ccccc3N)cc2)Oc2ccc(NS(=O)(=O)c3cn(C)cn3)cc2CC1=O | inactive: 1
C[C@@H]1CN([C@@H](C)CO)C(=O)c2cccc(NS(=O)(=O)c3cn(C)cn3)c2O[C@H]1CN(C)Cc1ccc(C(=O)Nc2ccccc2N)cc1 | inactive: 0.997
CN1C(=O)c2cc(NC(=O)Cc3cccs3)ccc2OC[C@H]2O[C@H](CC(=O)NCCc3ccncc3)CC[C@@H]21 | inactive: 0.943
C/C=C\C=C/[C@@H]1O[C@](O)([C@@H](CC)C(=O)NC/C=C\C=C(\C)[C@@H](OC)[C@@H](C)[C@H]2O[C@@H](\C=C/C=C\C=C(\C)C(=O)c3c(O)cc[nH]c3=O)[C@@H](O)[C@@H]2O)[C@@H](O)[C@H](O)C1(C)C | inactive: 0.271
C[C@@H]1CN([C@@H](C)CO)S(=O)(=O)c2ccc(C#CCN(C)C)cc2O[C@@H]1CN(C)Cc1ccc(F)cc1 | inactive: 1.03
COc1cccc(S(=O)(=O)N2C[C@H](O)COC[C@H]3O[C@@H](CC(=O)NCCCN4CCOCC4)CC[C@@H]32)c1 | inactive: 0.999
O=C1O[C@H](c2ccccc2)[C@H](c2ccccc2)N2[C@H]1[C@@H](C(=O)Nc1nc3ccccc3s1)[C@]1(C(=O)Nc3ccccc31)[C@H]2c1ccc(OCCO)cc1 | inactive: 1.01
CCS(=O)(=O)NCC[C@H]1CC[C@H](NC(=O)C2CCOCC2)[C@@H](CO)O1 | inactive: 1
COc1cccc(S(=O)(=O)N(C)C[C@@H]2Oc3cc(C#CCN(C)C)ccc3S(=O)(=O)N([C@H](C)CO)C[C@@H]2C)c1 | inactive: 1.03
C=c1cc(C)cc(C)c1=C1NN=C(N)S1 | inactive: 0.917
CC(C)NC(=O)Nc1ccc2c(c1)CC(=O)N([C@@H](C)CO)C[C@@H](C)[C@H](CN(C)Cc1ccc3c(c1)OCO3)O2 | inactive: 0.979
COC(=O)C[C@@H]1CC[C@@H]2[C@H](COC[C@H](O)CN2S(=O)(=O)c2ccccc2C)O1 | inactive: 0.994
C[C@@H]1CN([C@@H](C)CO)C(=O)Cc2cc(NS(=O)(=O)c3cn(C)cn3)ccc2O[C@@H]1CN(C)Cc1ccc(C(=O)O)cc1 | inactive: 1

Structure (SMILES) | relative growth
C[C@H](C(=O)NC1CCCC1)N(C(=O)Cn1nnc(-c2ccc3c(c2)OC(F)(F)O3)n1)C1CCCCC1 | inactive: 1.03
COc1cccc(S(=O)(=O)N(C)C[C@@H]2Oc3ncc(C#CCC(C)C)cc3C(=O)N([C@@H](C)CO)C[C@@H]2C)c1 | inactive: 1.01
COc1cccc(CNC(=O)C[C@H]2C=C[C@@H](NC(=O)C3CCOCC3)[C@@H](CO)O2)c1 | inactive: 0.999
COc1ccc(S(=O)(=O)Nc2ccc3c(c2)C(=O)N([C@@H](C)CO)C[C@@H](C)[C@@H](CN(C)C(=O)Nc2c(C)noc2C)OCCCC[C@H](C)O3)cc1 | inactive: 1
C[C@@H]1CN([C@H](C)CO)C(=O)c2cccc(NC(=O)c3ccncc3)c2O[C@H]1CN(C)Cc1ccc2c(c1)OCO2 | inactive: 0.992
C[C@H]1CN([C@@H](C)CO)C(=O)CCCn2nncc2CO[C@H]1CN(C)C(=O)C1CC1 | inactive: 0.936
O=C(C[C@H]1CC[C@@H]2[C@H](COC[C@@H](O)CN2S(=O)(=O)c2ccc(Cl)cc2)O1)NCc1ccncn1 | inactive: 1
C[C@@H]1CN([C@H](C)CO)S(=O)(=O)c2ccc(C#CC3CC3)cc2O[C@@H]1CN(C)Cc1ccc(F)cc1 | inactive: 0.998
C[C@H]1CN([C@@H](C)CO)C(=O)Cc2cc(NC(=O)CCN3CCOCC3)ccc2O[C@H]1CN(C)S(=O)(=O)c1cn(C)cn1 | inactive: 0.981
C[C@H](CO)N1C[C@H](C)[C@H](CN(C)C(=O)c2cccc(F)c2)Oc2cc(-c3cncnc3)ccc2S1(=O)=O | inactive: 1.02
Cc1noc(C)c1NC(=O)Nc1ccc2c(c1)C(=O)N([C@H](C)CO)C[C@H](C)[C@@H](CN(C)Cc1ccc(-c3ccccc3)cc1)O2 | inactive: 0.981
C[C@@H]1CN([C@@H](C)CO)C(=O)c2cc(NC(=O)Nc3ccc(F)cc3)ccc2O[C@@H](C)CCCCO[C@H]1CN(C)C(=O)C1CCCCC1 | inactive: 0.992
C[C@H](CO)N1C[C@H](C)[C@@H](CN(C)Cc2ccc(C(=O)Nc3ccccc3N)cc2)Oc2ccc(NC(=O)Nc3ccc(F)cc3)cc2CC1=O | inactive: 1
CCS(=O)(=O)N1CC[C@]2(CC1)CN(Cc1ccc3c(c1)OCO3)[C@@H](CO)c1c2c2ccc(cc2n1C)OC | inactive: 1.03
C[C@@H]1CN([C@H](C)CO)C(=O)Cc2cc(NS(C)(=O)=O)ccc2O[C@@H]1CN(C)C(=O)Nc1ccc(C(F)(F)F)cc1 | inactive: 0.998
COc1cccc(-c2ccc3c(c2)O[C@H](CN(C)C(=O)C2CC2)[C@@H](C)CN([C@@H](C)CO)S3(=O)=O)c1 | inactive: 0.988
C[C@H](CO)N1C[C@H](C)[C@H](CN(C)C(=O)Nc2ccc(N3CCN(C)CC3)cc2)OCc2cn(nn2)CCCC1=O | inactive: 1.02
COCCOC(=O)N1C(=O)[C@@]2(c3cc(C#Cc4ccc(OC)cc4)ccc31)[C@H](c1ccc(O)cc1)N1[C@H](c3ccccc3)[C@H](c3ccccc3)OC(=O)[C@H]1[C@@H]2C(=O)N1CCc2cc(OC)c(OC)cc2C1 | inactive: 1.02
COc1ccccc1-c1ccc2c(c1)O[C@@H](CN(C)CC1CCOCC1)[C@H](C)CN([C@H](C)CO)S2(=O)=O | inactive: 1.02

Structure (SMILES) | relative growth
C[C@@H]1CN([C@H](C)CO)C(=O)c2cccc(NS(=O)(=O)c3ccccc3)c2O[C@@H]1CN(C)Cc1ccc(Oc2ccccc2)cc1 | inactive: 1.01
C[C@@H]1CN([C@H](C)CO)C(=O)c2cc(NC(=O)C3CCCCC3)ccc2O[C@@H](C)CCCCO[C@@H]1CN(C)C(=O)Nc1ccc2c(c1)OCO2 | inactive: 0.954
COc1ccc(NC(=O)Nc2ccc3c(c2)[C@@H]2C[C@H](CC(=O)NCc4ccccn4)O[C@@H](CO)[C@@H]2O3)cc1 | inactive: 1.01
CCCN(C)C[C@@H]1OCCCC[C@@H](C)Oc2ccc(NC(=O)Nc3ccc(C(F)(F)F)cc3)cc2C(=O)N([C@H](C)CO)C[C@H]1C | inactive: 1.01
CC(C)NC(=O)N(C)C[C@@H]1Oc2c(NC(=O)NC3CCCCC3)cccc2C(=O)N([C@@H](C)CO)C[C@@H]1C | inactive: 0.988
COCCOC(=O)N1C(=O)[C@@]2(c3cc(C#Cc4ccc(OC)cc4)ccc31)[C@H](C(=O)NC[C@H](O)c1ccccc1)[C@H]1C(=O)O[C@H](c3ccccc3)[C@H](c3ccccc3)N1[C@@H]2c1ccc(OCCO)cc1 | inactive: 1.05
Cc1c(C(=O)O)sc2[nH]cnc(=O)c12 | inactive: 0.996
Cc1ccc(S(=O)(=O)N(C)C[C@@H]2Oc3ccc(NS(=O)(=O)c4cn(C)cn4)cc3C(=O)N([C@H](C)CO)C[C@@H]2C)cc1 | inactive: 1.02
C[C@H](CO)N1C[C@H](C)[C@@H](CN(C)Cc2ccc(-c3ccccc3)cc2)Oc2ccc(NC(=O)Nc3ccc(F)cc3)cc2CC1=O | inactive: 0.994
CO[C@H]1CN(C)C(=O)c2cc(NS(=O)(=O)CC(F)(F)F)ccc2OC[C@@H](C)N(C(=O)c2ccc3c(c2)OCO3)C[C@@H]1C | inactive: 1.01
C[C@@H]1CCCCO[C@H](CN(C)Cc2ccc(C(F)(F)F)cc2)[C@@H](C)CN([C@H](C)CO)C(=O)c2cc(NC(=O)Cc3ccccc3)ccc2O1 | inactive: 1.05
COc1ccc(CN(C)C[C@@H]2OCCCC[C@@H](C)Oc3ccc(NS(=O)(=O)c4c(C)noc4C)cc3C(=O)N([C@@H](C)CO)C[C@H]2C)cc1 | inactive: 1.01
CCNC(=O)[C@@H]1[C@@H](CO)[C@@H]2Cn3c(ccc(C4=CCCC4)c3=O)[C@H]1N2S(=O)(=O)c1cn(C)cn1 | inactive: 0.996
C[C@H](CO)N1C[C@H](C)[C@@H](CN(C)CC2CCCCC2)Oc2c(NC(=O)c3nc4ccccc4s3)cccc2C1=O | inactive: 0.789
CO[C@H]1CN(C)C(=O)c2ccc(NS(=O)(=O)CC(F)(F)F)cc2OC[C@@H](C)N(C(=O)c2ccc3c(c2)OCO3)C[C@@H]1C | inactive: 0.987
Cc1cc(C(=O)Nc2cccc3c2O[C@H](CN(C)C(=O)Nc2ccc4c(c2)OCO4)[C@H](C)CN([C@H](C)CO)C3=O)n(C)n1 | inactive: 0.991
C=CCC[C@H](Cc1ccc(F)cc1)C(=O)OC[C@@H]1CCCN1C(=O)[C@H](CC=C)CC(=O)N(CCO)Cc1ccccc1 | inactive: 1.05
O=C(O)CC1(C(F)(F)F)OCCO1 | inactive: 1.01
